# Measurements from the supplement of paper PMC8728848.
# This is one part of the list.
# How the values were obtained:
# Assay in all cases: glycan array binding signal (z-score within array); higher = stronger binding
# Details in all cases: glycan notation: IUPAC condensed, linker removed
# [1] = biological target: Gal(b1-4)GlcNAc(b1-3)Gal(b1-4)GlcNAc(b1-3)Gal(b1-4)GlcNAc
# Summary of the method: (§1)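 The Consortium for Functional Glycomics database supplied 3228 glycan arrays, of which those lacking an available protein sequence were dropped. The binding signal, a within-array Z-score, was averaged across arrays of the same protein sequence and across linkers. Negative scores can be read as non-binding.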
# [2] = biological target: Gal(b1-4)GlcNAc(b1-3)Gal(b1-4)[Fuc(a1-3)]GlcNAc(b1-3)Gal(b1-4)[Fuc(a1-3)]GlcNAc
# Summary of the method: as §1
# [3] = biological target: Gal(b1-4)GlcNAc(b1-3)GalNAc
# Summary of the method: as §1
# [4] = biological target: Gal(b1-4)GlcNAc(b1-3)[Gal(b1-4)GlcNAc(b1-6)]Gal(b1-4)GlcNAc
# Summary of the method: as §1
# [5] = biological target: Gal(b1-4)GlcNAc(b1-3)[GlcNAc(b1-6)]Gal(b1-4)GlcNAc
# Summary of the method: as §1
# [6] = biological target: Gal(b1-4)GlcNAc(b1-6)Gal(b1-4)GlcNAc
# Summary of the method: as §1
# [7] = biological target: Gal(b1-4)GlcNAc(b1-6)Gal(b1-4)GlcNAc(b1-6)GalNAc
# Summary of the method: as §1
# [8] = biological target: Gal(b1-4)GlcNAc(b1-6)GalNAc
# Summary of the method: as §1
# [9] = biological target: Gal(b1-4)GlcNAc(b1-6)[Gal(b1-3)]GalNAc
# Summary of the method: as §1
# Gal3S(b1-3)GalNAc = biological target: Gal3S(b1-3)GalNAc
# Summary of the method: as §1
# Gal3S(b1-3)GlcNAc = biological target: Gal3S(b1-3)GlcNAc
# Summary of the method: as §1
# [10] = biological target: Gal3S(b1-3)[Fuc(a1-4)]GlcNAc
# Summary of the method: as §1
# Gal3S(b1-4)Glc = biological target: Gal3S(b1-4)Glc
# Summary of the method: as §1
# Gal3S(b1-4)Glc6S = biological target: Gal3S(b1-4)Glc6S
# Summary of the method: as §1
# Gal3S(b1-4)GlcNAc = biological target: Gal3S(b1-4)GlcNAc
# Summary of the method: as §1
# Gal3S(b1-4)GlcNAc6S = biological target: Gal3S(b1-4)GlcNAc6S
# Summary of the method: as §1
# [11] = biological target: Gal3S(b1-4)[Fuc(a1-3)]Glc
# Summary of the method: as §1
# Gal3S4S(b1-4)GlcNAc = biological target: Gal3S4S(b1-4)GlcNAc
# Summary of the method: as §1
# Gal3S6S(b1-4)GlcNAc = biological target: Gal3S6S(b1-4)GlcNAc
# Summary of the method: as §1
# Gal3S6S(b1-4)GlcNAc6S = biological target: Gal3S6S(b1-4)GlcNAc6S
# Summary of the method: as §1
# Gal4S(b1-4)GlcNAc = biological target: Gal4S(b1-4)GlcNAc
# Summary of the method: as §1
# Gal4S6S(b1-4)GlcNAc = biological target: Gal4S6S(b1-4)GlcNAc
# Summary of the method: as §1
# Gal6S(b1-4)Glc = biological target: Gal6S(b1-4)Glc
# Summary of the method: as §1
# Gal6S(b1-4)Glc6S = biological target: Gal6S(b1-4)Glc6S
# Summary of the method: as §1
# Gal6S(b1-4)GlcNAc = biological target: Gal6S(b1-4)GlcNAc
# Summary of the method: as §1
# Gal6S(b1-4)GlcNAc6S = biological target: Gal6S(b1-4)GlcNAc6S
# Summary of the method: as §1
# GalNAc(a1-3)Gal = biological target: GalNAc(a1-3)Gal
# Summary of the method: as §1
# GalNAc(a1-3)GalNAc = biological target: GalNAc(a1-3)GalNAc
# Summary of the method: as §1
# GalNAc(b1-3)Gal = biological target: GalNAc(b1-3)Gal
# Summary of the method: as §1
# [12] = biological target: GalNAc(b1-3)Gal(a1-4)Gal(b1-4)GlcNAc
# Summary of the method: as §1
# GalNAc(b1-3)GalNAc = biological target: GalNAc(b1-3)GalNAc
# Summary of the method: as §1
# GalNAc(b1-4)GlcNAc = biological target: GalNAc(b1-4)GlcNAc
# Summary of the method: as §1
# Glc(a1-4)Glc = biological target: Glc(a1-4)Glc
# Summary of the method: as §1
# Glc(a1-6)Glc(a1-6)Glc = biological target: Glc(a1-6)Glc(a1-6)Glc
# Summary of the method: as §1
# Glc(b1-4)Glc = biological target: Glc(b1-4)Glc
# Summary of the method: as §1
# Glc(b1-6)Glc = biological target: Glc(b1-6)Glc
# Summary of the method: as §1
# GlcA(b1-3)Gal = biological target: GlcA(b1-3)Gal
# Summary of the method: as §1
binder,measurement,setting,value
Surfactant Protein D (Human); Neck + Carbohydrate Recognition Domain (NCRD) (Homo sapiens) (protein) MLLFLLSALVLLTQPLGYLEAEMKTYSHRTMPSACTLVMCSSVESGLPGRDRDGREGPRGEKGDPGLPGAAGQAGMPGQAGPVGPKGDNGSVGEPGPKGDTGPSGPPGPPGVPGPAGREGALGKQGNIGPQGKPGPKGEAGPKGEVGAPGMQGSAGARGLAGPKGERGVPGERGVPGNTGAAGSAGAMGPQGSPGARGPPGLKGDKGIPGDKGAKGESGLPDVASLRQQVEALQGQVQHLQAAFSQYKKVELFPNGQSVGEKIFKTAQFVKPFTEAQLLCTQAGGQLASPRSAAENAALQQLVVAKNEAAFLSMTDSKTEGKFTYPTGESLVYSNWAPGEPNDDGGSEDCVEIFTNGKWNDRACGEKRLVVCEF,glycan array binding signal (z-score),[1],-0.193
same,glycan array binding signal (z-score),[2],-0.173
same,glycan array binding signal (z-score),[3],-0.113
same,glycan array binding signal (z-score),[4],-0.29
same,glycan array binding signal (z-score),[5],-0.231
same,glycan array binding signal (z-score),[6],-0.172
same,glycan array binding signal (z-score),[7],-0.271
same,glycan array binding signal (z-score),[8],-0.269
same,glycan array binding signal (z-score),[9],-0.207
same,glycan array binding signal (z-score),Gal3S(b1-3)GalNAc,-0.251
same,glycan array binding signal (z-score),Gal3S(b1-3)GlcNAc,-0.226
same,glycan array binding signal (z-score),[10],-0.176
same,glycan array binding signal (z-score),Gal3S(b1-4)Glc,-0.244
same,glycan array binding signal (z-score),Gal3S(b1-4)Glc6S,-0.124
same,glycan array binding signal (z-score),Gal3S(b1-4)GlcNAc,-0.259
same,glycan array binding signal (z-score),Gal3S(b1-4)GlcNAc6S,-0.135
same,glycan array binding signal (z-score),[11],-0.272
same,glycan array binding signal (z-score),Gal3S4S(b1-4)GlcNAc,-0.137
same,glycan array binding signal (z-score),Gal3S6S(b1-4)GlcNAc,-0.201
same,glycan array binding signal (z-score),Gal3S6S(b1-4)GlcNAc6S,-0.068
same,glycan array binding signal (z-score),Gal4S(b1-4)GlcNAc,-0.234
same,glycan array binding signal (z-score),Gal4S6S(b1-4)GlcNAc,-0.207
same,glycan array binding signal (z-score),Gal6S(b1-4)Glc,-0.216
same,glycan array binding signal (z-score),Gal6S(b1-4)Glc6S,-0.034
same,glycan array binding signal (z-score),Gal6S(b1-4)GlcNAc,-0.211
same,glycan array binding signal (z-score),Gal6S(b1-4)GlcNAc6S,-0.152
same,glycan array binding signal (z-score),GalNAc(a1-3)Gal,-0.254
same,glycan array binding signal (z-score),GalNAc(a1-3)GalNAc,-0.281
same,glycan array binding signal (z-score),GalNAc(b1-3)Gal,-0.203
same,glycan array binding signal (z-score),[12],-0.207
same,glycan array binding signal (z-score),GalNAc(b1-3)GalNAc,-0.264
same,glycan array binding signal (z-score),GalNAc(b1-4)GlcNAc,-0.227
same,glycan array binding signal (z-score),Glc(a1-4)Glc,0.054
same,glycan array binding signal (z-score),Glc(a1-6)Glc(a1-6)Glc,-0.14
same,glycan array binding signal (z-score),Glc(b1-4)Glc,0.019
same,glycan array binding signal (z-score),Glc(b1-6)Glc,-0.117
same,glycan array binding signal (z-score),GlcA(b1-3)Gal,-0.2
